{
  "source": "paper PMC9911399",
  "about": "“Two distinct binding modes provide the RNA-binding protein RbFox with extraordinary sequence specificity”",
  "binders": {"B1": {"name": "UAAGUUC (DNA:RNA)", "RNA": "GGGAGACCGGAAUUCAGAUUGUCCUAAGUUCUUAAAUCCCGUCGUAGCCACCA", "DNA 1": "CAATCTGAATTCCGGTCTCCC", "DNA 2": "TGGTGGCTACGACGGGATT"}, "B2": {"name": "UCGCCAC (DNA:RNA)", "RNA": "B1 RNA with A26C, A27G, G28C, U29C, U30A", "DNA 1": "CAATCTGAATTCCGGTCTCCC", "DNA 2": "TGGTGGCTACGACGGGATT"}, "B3": {"name": "ACUUGUG (DNA:RNA)", "RNA": "B1 RNA with U25A, A26C, A27U, G28U, U29G, C31G", "DNA 1": "CAATCTGAATTCCGGTCTCCC", "DNA 2": "TGGTGGCTACGACGGGATT"}, "B4": {"name": "UCAGCUC (DNA:RNA)", "RNA": "B1 RNA with A26C, U29C", "DNA 1": "CAATCTGAATTCCGGTCTCCC", "DNA 2": "TGGTGGCTACGACGGGATT"}, "B5": {"name": "GGGGCUA (DNA:RNA)", "RNA": "B1 RNA with U25G, A26G, A27G, U29C, C31A", "DNA 1": "CAATCTGAATTCCGGTCTCCC", "DNA 2": "TGGTGGCTACGACGGGATT"}, "B6": {"name": "CUUGGUU (DNA:RNA)", "RNA": "B1 RNA with U25C, A26U, A27U, U29G, C31U", "DNA 1": "CAATCTGAATTCCGGTCTCCC", "DNA 2": "TGGTGGCTACGACGGGATT"}, "B7": {"name": "GAGCCGU (DNA:RNA)", "RNA": "B1 RNA with U25G, A27G, G28C, U29C, U30G, C31U", "DNA 1": "CAATCTGAATTCCGGTCTCCC", "DNA 2": "TGGTGGCTACGACGGGATT"}, "B8": {"name": "AUGAUGC (DNA:RNA)", "RNA": "B1 RNA with U25A, A26U, A27G, G28A, U30G", "DNA 1": "CAATCTGAATTCCGGTCTCCC", "DNA 2": "TGGTGGCTACGACGGGATT"}, "B9": {"name": "UUAAUGG (DNA:RNA)", "RNA": "B1 RNA with A26U, G28A, U30G, C31G", "DNA 1": "CAATCTGAATTCCGGTCTCCC", "DNA 2": "TGGTGGCTACGACGGGATT"}},
  "note": "Positions count from the first letter of the chain named. The list shows a part of the results.",
  "data": [
    {"biological_target": "T1, RBFOX1 RRM RbFoxmut (Fox-RRM*) (Homo sapiens, UniProt Q9NWB1 109-208, R118D;E147R;N151S;E152T)", "T1 sequence": "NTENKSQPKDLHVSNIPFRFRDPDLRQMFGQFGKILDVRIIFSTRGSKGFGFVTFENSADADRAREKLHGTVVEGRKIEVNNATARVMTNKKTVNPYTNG", "test": "EMSA; HiTS-Eq, 1 nM pool, 10 min; buffer printed only for the single-RNA assays: 10 mM Tris pH 7.5, 150 mM NaCl, 3.4 mM EDTA, 0.001% NP-40, 30 C", "details": "tags: His6 N-terminal (pET28a); label: 5' 32P", "in_short": "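A pool of RNA with 7 randomized nucleotides, 5′-radiolabelled and with DNA-annealed flanks, was equilibrated at 1 nM for 10 min in 50 µL with purified RbFox RRM, wild type or mutant, across increasing protein concentrations. Free RNA was separated by 8% native PAGE, excised, reverse-transcribed, barcoded by PCR and sequenced. Relative association constants were obtained from read-count changes of each RNA species versus the control reaction and normalised to the cognate motif.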", "values": [
      {"binder": "B1", "binding signal": "0.0634 KA relative to UGCAUGU"},
      {"binder": "B2", "binding signal": "0.121 KA relative to UGCAUGU"},
      {"binder": "B3", "binding signal": "0.168 KA relative to UGCAUGU"},
      {"binder": "B4", "binding signal": "0.0683 KA relative to UGCAUGU"},
      {"binder": "B5", "binding signal": "0.132 KA relative to UGCAUGU"},
      {"binder": "B6", "binding signal": "0.0961 KA relative to UGCAUGU"},
      {"binder": "B7", "binding signal": "0.0954 KA relative to UGCAUGU"},
      {"binder": "B8", "binding signal": "0.149 KA relative to UGCAUGU"},
      {"binder": "B9", "binding signal": "0.0858 KA relative to UGCAUGU"}
    ]}
  ]
}
